B1: LINE1-mini (parent)
chain: GGCAGAGCUCAACACAGCGUGGCAAAGUGGCUGUGGCUAGACUGCC

Read counts are not given, so values of variants with three or more changes are uncertain.

The results in this text go back to the RNAGym collection of RNA variant scans (doi:10.7554/elife.90254).

The variants in the series derive from B1. In words: self-cleavage, relative activity (ratio to wild type); higher = more cleavage; in vitro, sequencing; the parent is a self-cleaving ribozyme.
Take GGCAGAGCUCAACACAGGGUGGUACAGUGGCUGUGUCUAGACUGCC [C18G C23U A25C G36U]: the self-cleavage was found to be 0.12.
Under GGCAGAGCUCAACACAGGGUGGCAAAGUGGUUGUGAAUAGACUGCC [C18G C31U G36A C37A] stands 0.02.
With GGCAGAGCUCAACACAGAGUGGCAAAGUGGCUGUGGCUAGACGUCC [C18A U43G G44U], the self-cleavage stood at 0.03.
For GGCAGAGCUCAACACAGAGUGGCAAAGUGGCUGUGGCUAGACGCCC [C18A U43G G44C], the self-cleavage stood at 0.02.
Under GGCAGAGCUCAACACAGGGUGGCAAAGUGGCUGUGGCUGCACUGCC [C18G A39G G40C] stands 0.05; under GGCAGAGCUCAACACAGAGUGGCAAAGUGGCUGUCUCUAGACUGAC [C18A G35C G36U C45A], 0.01; under GGCAGAGCUCAACACAGAGUGGCAAAGUGGCUUUGGCUAGACUGCA [C18A G33U C46A], 0.02.
GGCAGAGCUCAACACAGGGUGGCAUAGUGGCUGCGGCUAGACUGCC [C18G A25U U34C]: the self-cleavage is 0.
Then GGCAGAGCUCAACACAGGGUGGCUAAGUCGCUGUGGCUAGACUGCA [C18G A24U G29C C46A], with 0.69; and GGCAGAGCUCAACACAGGGUGGCAAUGUGGCUGUGGCUAGACGGCC [C18G A26U U43G], with 0.03; and GGCAGAGCUCAACACAGAGUGGCAAAGUGGCUUUGGCUAGAGUGCC [C18A G33U C42G], with 0.02.
Then GGCAGAGCUCAACACAGGGUGGCAAAGUGGCUGUGGCUAGACUGUA [C18G C45U C46A], with 0.08.
Under GGCAGAGCUCAACACAGAGAGGCGAAGUGGCUGUGGCUAGACUGCC [C18A U20A A24G] stands 0.12; under GGCAGAGCUCAACACAGGGUCGCAAUGUGGCUGUGGCUAGACUGCC [C18G G21C A26U], 0.48; under GGCAGAGCUCAACACAGAGUGGCAAAGCGGCUGUGGCUAGAUUGCC [C18A U28C C42U], 0.11.
Consider GGCAGAGCUCAACACAGAGUGGCAAAGUGGCAGUGGCGAGACUGCA [C18A U32A U38G C46A], for which the self-cleavage worked out at 0.02.
Under GGCAGAGCUCAACACAGGGUGACAAUGUGGGUGUGGCUAGACUGCC [C18G G22A A26U C31G] stands 0.13; under GGCAGAGCUCAACACAGGCUGGCAAAGUGGCUGUGGAUAGAUUGAC [C18G G19C C37A C42U C45A], 0.01.
Under GGCAGAGCUCAACACAGGGUGGCAAAGUGGUUGUGUCUAGACUGCC [C18G C31U G36U] stands 0.05; under GGCAGAGCUCAACACAGAGUGGCAAAGUGGCUGCGGCUAGUCUCCC [C18A U34C A41U G44C], 0.
With GGCAGAGCUCAACACAGGGUGGCCAAGUGGCUGUGGCCAGACUGCC [C18G A24C U38C], the self-cleavage came out at 0.07.
Then GGCAGAGCUCAACACAGGGUUGCAAAGGGGCUGUUGCUAGACUGCC [C18G G21U U28G G35U], with 0.01; and GGCAGAGCUCAACACAGGGUGGCCAAGUGGCUGUGGCUAGACUGUC [C18G A24C C45U], with 0.16.
Then GGCAGAGCUCAACACAGGGUGGGAAAGUUGCUGUGGCUAGACUUCC [C18G C23G G29U G44U], with 0.02; and GGCAGAGCUCAACACAGGGUGUCAAAGUGGCUGUGGCUAGACUGCU [C18G G22U C46U], with 0.14; and GGCAGAGCUCAACACAGAGUGGCAAAGGGGCUGUGGCUAGACCGCC [C18A U28G U43C], with 0.03.
Under GGCAGAGCUCAACACAGAGUGGCAAAGAGGCUUUGGCUAGACUGCC [C18A U28A G33U] stands 0.04; under GGCAGAGCUCAACACAGGAUACUAAAGUGGUUGUGGCUAGACUGCC [C18G G19A G21A G22C C23U C31U], 0.03; under GGCAGAGCUCAACACAGGGUGGUAAAGUCACUGUGGCUAGACUUCC [C18G C23U G29C G30A G44U], 0.17.
Regarding GGCAGAGCUCAACACAGGGUGGUAAAGUCAAUGUGGUUAGACUGCC [C18G C23U G29C G30A C31A C37U], the self-cleavage came out at 0.
Then GGCAGAGCUCAACACAGGGUGGCAAAGUGGAUGUGGCUAGACUGGC [C18G C31A C45G], with 0.03; and GGCAGAGCUCAACACAGGGUGUCAAAGUGGCUGUGCCUAGACUGCC [C18G G22U G36C], with 0.02; and GGCAGAGCUCAACACAGAGUGGCAAAGUUGCUGUGGCUAUACUGCC [C18A G29U G40U], with 0.04.
With GGCAGAGCUCAACACAGGUUGGCAAAGUGACUGUGGCUAGGCUGCC [C18G G19U G30A A41G], the self-cleavage amounted to 0.58.
Then GGCAGAGCUCAACACAGAGCGGCAAAGUGGCUGUCGCUAGACUGCC [C18A U20C G35C], with 0.01; and GGCAGAGCUCAACACAGGCUGGCAAAGUGGCUGUGGUUAGACUGCC [C18G G19C C37U], with 0.79; and GGCAGAGCUCAACACAGAGUGGCAAAGUGGCUGUAGCUAGACUUCC [C18A G35A G44U], with 0.01.
Then GGCAGAGCUCAACACAGAGUGGCAAAGUGGCUGUUGUUAGACUGCC [C18A G35U C37U], with 0.06; and GGCAGAGCUCAACACAGAGAUGCAAAGUGGCUGUGGCUAGACUGCC [C18A U20A G21U], with 0.17; and GGCAGAGCUCAACACAGGGUGGCAGCGUGGCUGUGGCUAGACUGCC [C18G A25G A26C], with 0.02.
GGCAGAGCUCAACACAGGGUGGCAAAGUGGUUGUCGCUAGACUGCC [C18G C31U G35C]: the self-cleavage amounted to 0.11.
On to GGCAGAGCUCAACACAGGGUGGCAGAGUGGAUGUGGCUAGACUGCC [C18G A25G C31A], for which the self-cleavage turned out to be 0.12.
Then GGCAGAGCUCAACACAGGGUGGCCAAGUGGCCGUGGCAAGACUGCG [C18G A24C U32C U38A C46G], with 0; and GGCAGAGCUCAACACAGAGUGGCAAAGUGGCUGGGGCUAGUCUGCC [C18A U34G A41U], with 0.04.
As for GGCAGAGCUCAACACAGGGUACCAAAGUGGCUCUGGCUAGACUGCC [C18G G21A G22C G33C], the self-cleavage was 0.01.
For the variant GGCAGAGCUCAACACAGAGUGGCAAAGUGGCAGUGGCUAGACUACC [C18A U32A G44A], the self-cleavage is 0.03.
Under GGCAGAGCUCAACACAGGGUGGCAAGGUGGCUGUGGCUAGAGUGCA [C18G A26G C42G C46A] stands 0.06; under GGCAGAGCUCAACACAGAGUGGCAAAGUGGCUCUGGCUAGACUGAC [C18A G33C C45A], 0; under GGCAGAGCUCAACACAGGGUCGCAAACUGGCUUUGGCUAGACUGCC [C18G G21C G27C G33U], 0.04.
Under GGCAGAGCUCAACACAGAGGGGCAAAGUGGCUGAAGCUAGACUGCC [C18A U20G U34A G35A] stands 0.01; under GGCAGAGCUCAACACAGAGGGGAAAAGUGGUUGUGGCAAGACUGCG [C18A U20G C23A C31U U38A C46G], 0.01; under GGCAGAGCUCAACACAGGGUGCAAAAGUGGCUGUGGCUACACUGCC [C18G G22C C23A G40C], 0.07.
On to GGCAGAGCUCAACACAGGUUGGCAAAGUGGCUUUGGCGAGACUGCG [C18G G19U G33U U38G C46G], for which the self-cleavage is 0.05.
In the case of GGCAGAGCUCAACACAGAGUGGCAAAGUUGAUGUGGCUAGACUGCC [C18A G29U C31A], the self-cleavage is 0.16.
Turning to GGCAGAGCUCAACACAGAGUGGCAAAGUGGCUGUUGCUAGCCUGCC [C18A G35U A41C], the self-cleavage is 0.06.
Then GGCAGAGCUCAACACAGGGUGGCAACGUGGCUGUGGCUUGACUGCC [C18G A26C A39U], with 0.26.
